According to the supplement of paper PMC3334620:
The full ranking holds about 33,000 sequences; the median of “E-score (-0.5 to 0.5)” is about -0.032, and the highest 2% start at about 0.36. The list shows a part of the results.

Target: T1, Sko1 (UniProt Q02100)
T1 sequence: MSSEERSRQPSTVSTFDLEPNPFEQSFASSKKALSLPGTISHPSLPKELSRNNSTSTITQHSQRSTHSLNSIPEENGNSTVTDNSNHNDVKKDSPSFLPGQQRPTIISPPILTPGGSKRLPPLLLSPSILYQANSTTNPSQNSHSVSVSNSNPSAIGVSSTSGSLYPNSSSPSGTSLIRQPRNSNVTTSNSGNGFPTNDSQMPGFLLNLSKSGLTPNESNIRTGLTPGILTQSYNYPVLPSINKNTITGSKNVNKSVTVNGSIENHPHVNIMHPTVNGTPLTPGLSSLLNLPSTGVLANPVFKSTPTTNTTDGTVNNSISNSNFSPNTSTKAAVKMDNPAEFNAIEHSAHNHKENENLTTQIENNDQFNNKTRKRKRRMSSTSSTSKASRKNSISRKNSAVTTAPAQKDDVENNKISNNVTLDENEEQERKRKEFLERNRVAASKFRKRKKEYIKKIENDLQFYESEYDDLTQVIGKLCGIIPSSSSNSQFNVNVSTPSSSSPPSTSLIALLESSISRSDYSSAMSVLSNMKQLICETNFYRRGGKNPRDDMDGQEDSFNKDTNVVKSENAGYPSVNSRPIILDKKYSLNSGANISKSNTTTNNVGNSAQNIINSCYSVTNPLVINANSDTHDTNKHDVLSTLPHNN
Test: PBM E-score (8-mer binding enrichment) (E-score (-0.5 to 0.5)); higher = stronger / more preferred TF binding; most listed sequences are background and not binding sites
Conditions: protein concentration: 200 nM; construct: GST-full length
Summary of the method: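 GST-tagged yeast TFs (full-length or DNA-binding domain) were made by PURExpress in vitro transcription/translation and applied at about 100-200 nM to universal all-10-mer Agilent arrays. The arrays were made double-stranded by primer extension, on fresh or once-stripped slides. Bound protein was detected with fluorescent anti-GST, and scans were normalised with masliner. Each ungapped eight-base word, pooled with its reverse complement, received an E-score (modified Wilcoxon-Mann-Whitney statistic) from the Universal PBM Analysis Suite.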

Sequence	PBM E-score
CAGCGCAC	-0.246
AGGCTCGG	-0.362
CCCGACTA	-0.368
CGGATAAA	0.148
TCGGGAAA	0.0127
GTCTAATA	0.277
TATGATAA	0.247
AAACGCAT	0.0801
CCATCCGA	-0.104
ATTTGACA	0.198
ATAATCAA	0.0594
GCAATTTA	0.117
AGAGTGCC	-0.231
CGGCGGAG	-0.304
CTAAGGGC	-0.249
AAAGTAGA	0.0277
GCACTGGA	-0.0985
GATCGCTA	-0.056
CCTGCTCG	-0.328
CTCGACGA	-0.0837
GCCAATCC	-0.138
CTCAGGGA	-0.416

Sequence	PBM E-score
ATGCGGCA	-0.0793
ACGTATAG	0.437
GACTAAAA	0.0454
AACTTACC	-0.0258
CTAACAAC	-0.0133
GTTTCCAA	-0.0577
ATGCGCAG	-0.0369
ATAGGATA	-0.0824
AGTCCCTA	-0.165
GGGTCAAA	0.0542
ACGGCGGG	-0.167
CGGGGCGC	-0.313
GGAGCAAA	-0.153
TTCAGAAA	-0.0753
CAAGCCTC	-0.212
CCAAACCC	-0.0346
AACAGGCC	-0.333
ATGTAATG	0.321
TAATTGGA	0.0719
AAGTGATA	0.06
AAGTTTCG	0.0656
ACCTCAAT	0.219

Sequence	PBM E-score
CGAATATA	0.128
CGATCAGA	0.0873
AGTACTTG	0.16
CGGGCACA	-0.295
CTCCAGGA	-0.0718
GCCGATAA	-0.0997
CACGGAGA	-0.193
AACATGTT	0.0183
TAAAATCA	0.118
CGACCGCC	-0.152
GACACACC	-0.0226
TGAGCCAA	-0.0877
CTATGCAC	-0.0508
CAACTGGA	-0.157
AAGAATTG	0.114
GATGCGCC	-0.104
TAGCCATA	0.0536
ATGGGAGC	-0.176
ACGCTAGC	-0.0402
AGAATTAC	0.283
CTCACACA	-0.11
GAATGTCA	0.184

Sequence	PBM E-score
CCAGACCA	-0.162
GCTAGAAA	0.0276
TGACACAA	0.194
AATGTGTC	0.0196
CCATCCCA	-0.232
CCCTTAGA	-0.101
CGTTCTCA	0.112
GGTTCGAC	-0.0891
CAACCATC	-0.213
ACTACGCA	0.367
CAGAGAGC	-0.306
AACGGGCC	-0.0873
AGTGCATA	0.0433
ATCTCCCC	-0.331
ACAAATTA	0.287
ATGGGTCA	-0.0258
GATCAAGA	0.0938
CACCGAGG	-0.271
AACGCGGG	-0.087
AATGAAAC	0.0613
CATCAGCC	-0.0761
AAACTCGG	0.0107

Sequence	PBM E-score
ACCTCCTG	-0.198
ACCCTGGG	-0.146
AGATATTA	0.00673
CCAGCCAG	-0.335
GCGATCCA	-0.0815
AGACGCCA	0.0116
TACCTTCA	0.0673
CCGCTTAA	0.0447
ACCTGGGG	-0.209
CGACGCCC	-0.0842
CATGATCA	0.249
CCAGAGGC	-0.246
CTGCATTA	-0.0806
TAAGAGTA	0.0518
GGACTGGA	-0.254
AGGCTATA	-0.162
AAGTGTCT	-0.135
ATTTACAG	-0.0535
AAAGAGTC	-0.188
GCACCGCA	-0.113
ACAGATTC	0.0342
TGTCGACA	0.0772
